Experimental data published in the antibiotic and cytotoxicity screens of Wong et al. (2023).
The list shows a part of the results.

What was measured:
[1] = system: HSkMC (human skeletal muscle cells); test: cytotoxicity call (relative viability < 0.9); conditions: 10 µM
[2] = system: HepG2; test: cytotoxicity call (relative viability < 0.9); conditions: 10 µM
[3] = system: S. aureus RN4220; test: growth inhibition call (relative growth <= 0.2); conditions: 50 µM

SMILES: Cc1noc(C)c1NC(=O)N(C)C[C@H]1Oc2ccc(NC(=O)NC(C)C)cc2C(=O)N([C@@H](C)CO)C[C@H]1C
- cytotoxicity call [1]: inactive
- cytotoxicity call [2]: inactive
- growth inhibition call [3]: inactive

SMILES: C[C@@H]1CN([C@@H](C)CO)C(=O)c2cc(-c3cccc(C#N)c3)cnc2O[C@@H]1CN(C)C(=O)c1cnccn1
- cytotoxicity call [1]: inactive
- cytotoxicity call [2]: inactive
- growth inhibition call [3]: inactive

SMILES: Cc1noc(C)c1S(=O)(=O)Nc1ccc2c(c1)CC(=O)N([C@@H](C)CO)C[C@H](C)[C@@H](CN(C)S(=O)(=O)c1ccc(Cl)cc1)O2
- cytotoxicity call [1]: inactive
- cytotoxicity call [2]: inactive
- growth inhibition call [3]: inactive

SMILES: C[C@H](CO)N1C[C@H](C)[C@@H](CN(C)C(=O)Cc2ccccc2)OCCCC[C@H](C)Oc2ccc(NC(=O)Nc3ccccc3)cc2C1=O
- cytotoxicity call [1]: inactive
- cytotoxicity call [2]: inactive
- growth inhibition call [3]: inactive

SMILES: C[N+](C)(C)CC(=O)O
- cytotoxicity call [1]: inactive
- cytotoxicity call [2]: inactive
- growth inhibition call [3]: inactive

SMILES: CC(C)c1c(O)ccc2c1CCC1C(C)(C=O)CCCC21C (stereo unspecified)
- cytotoxicity call [1]: inactive
- cytotoxicity call [2]: inactive
- growth inhibition call [3]: inactive

SMILES: COCC(=O)Nc1ccc2c(c1)OC[C@@H](C)N(Cc1ccccc1OC)C[C@H](C)[C@@H](OC)CN(C)C2=O
- cytotoxicity call [1]: inactive
- cytotoxicity call [2]: inactive
- growth inhibition call [3]: inactive

SMILES: COc1ccc(CN(C)C[C@@H]2OCCCC[C@H](C)Oc3ccc(NC(=O)c4ccccc4)cc3C(=O)N([C@@H](C)CO)C[C@H]2C)cc1
- cytotoxicity call [1]: inactive
- cytotoxicity call [2]: inactive
- growth inhibition call [3]: inactive

SMILES: COC(=O)[C@H](Cc1ccc(-n2cc(C(=O)NO)nn2)cc1)N[C@H](/C=C/C1CC1)[C@@H](O)Cc1ccccc1
- cytotoxicity call [1]: inactive
- cytotoxicity call [2]: inactive
- growth inhibition call [3]: inactive

SMILES: C[C@@H]1CCCCO[C@@H](CN(C)C(=O)NC2CCCCC2)[C@@H](C)CN([C@@H](C)CO)C(=O)c2cc(NS(=O)(=O)c3cccs3)ccc2O1
- cytotoxicity call [1]: inactive
- cytotoxicity call [2]: inactive
- growth inhibition call [3]: inactive

SMILES: O=C(NCCCN1CCOCC1)Nc1ccc(Cc2ccc(NC(=O)NCCCN3CCOCC3)cc2)cc1
- cytotoxicity call [1]: inactive
- cytotoxicity call [2]: inactive
- growth inhibition call [3]: inactive

SMILES: CC(=O)Oc1ccccc1C(=O)O
- cytotoxicity call [1]: inactive
- cytotoxicity call [2]: inactive
- growth inhibition call [3]: inactive

SMILES: C[C@H]1CN([C@@H](C)CO)S(=O)(=O)c2ccc(C#Cc3ccc(F)cc3)cc2O[C@H]1CN(C)S(=O)(=O)c1ccc(F)cc1
- cytotoxicity call [1]: inactive
- cytotoxicity call [2]: inactive
- growth inhibition call [3]: inactive

SMILES: O=C(O)C=CC=Cc1ccccc1
- cytotoxicity call [1]: inactive
- cytotoxicity call [2]: inactive
- growth inhibition call [3]: inactive

SMILES: COc1ccc(CN(C)C[C@@H]2Oc3ccc(NS(=O)(=O)c4cn(C)cn4)cc3C(=O)N([C@@H](C)CO)C[C@H]2C)cc1
- cytotoxicity call [1]: inactive
- cytotoxicity call [2]: inactive
- growth inhibition call [3]: inactive

SMILES: COc1ccc(NC(=O)N(C)C[C@H]2OCCCC[C@H](C)Oc3ccc(NC(=O)Nc4ccccc4)cc3C(=O)N([C@@H](C)CO)C[C@H]2C)cc1
- cytotoxicity call [1]: inactive
- cytotoxicity call [2]: inactive
- growth inhibition call [3]: inactive

SMILES: CC(C)C#Cc1ccc2c(c1)O[C@H](CN(C)C(=O)c1cccc(F)c1)[C@@H](C)CN([C@H](C)CO)S2(=O)=O
- cytotoxicity call [1]: inactive
- cytotoxicity call [2]: inactive
- growth inhibition call [3]: inactive

SMILES: COc1ccc(S(=O)(=O)Nc2cccc3c2O[C@H](CN(C)S(C)(=O)=O)[C@H](C)CN([C@H](C)CO)C3=O)cc1
- cytotoxicity call [1]: inactive
- cytotoxicity call [2]: inactive
- growth inhibition call [3]: inactive

SMILES: C[C@@H]1CN([C@H](C)CO)C(=O)c2cc(NC(=O)CCC(F)(F)F)ccc2O[C@@H](C)CCCCO[C@@H]1CN(C)C(=O)C1CCCCC1
- cytotoxicity call [1]: inactive
- cytotoxicity call [2]: inactive
- growth inhibition call [3]: inactive

SMILES: C=CC[C@H](CC(=O)N(CCO)Cc1ccccc1)C(=O)NC[C@@H](OC(=O)[C@@H](CC=C)Cc1ccc(F)cc1)c1ccccc1
- cytotoxicity call [1]: inactive
- cytotoxicity call [2]: inactive
- growth inhibition call [3]: inactive

SMILES: C[C@@H]1CN([C@H](C)CO)C(=O)c2cc(NC(=O)CCCN(C)C)ccc2O[C@H]1CN(C)Cc1ccncc1
- cytotoxicity call [1]: inactive
- cytotoxicity call [2]: inactive
- growth inhibition call [3]: inactive

SMILES: COc1ccc(NC(=O)Nc2ccc3c(c2)C(=O)N([C@H](C)CO)C[C@H](C)[C@@H](CN(C)S(=O)(=O)c2cn(C)cn2)O3)cc1
- cytotoxicity call [1]: inactive
- cytotoxicity call [2]: inactive
- growth inhibition call [3]: inactive

SMILES: C[C@@H]1CN([C@H](C)CO)C(=O)c2cc(NC(=O)c3ccncc3)ccc2O[C@@H]1CN(C)Cc1ccc(-c2ccccc2)cc1
- cytotoxicity call [1]: inactive
- cytotoxicity call [2]: inactive
- growth inhibition call [3]: inactive

SMILES: COC(=O)c1cn(CC(=O)N2CCN(C)CC2)nn1
- cytotoxicity call [1]: inactive
- cytotoxicity call [2]: inactive
- growth inhibition call [3]: inactive

SMILES: Cc1noc(C)c1S(=O)(=O)N(C)C[C@H]1Oc2ccc(NC(=O)Nc3ccccc3)cc2CC(=O)N([C@H](C)CO)C[C@@H]1C
- cytotoxicity call [1]: inactive
- cytotoxicity call [2]: inactive
- growth inhibition call [3]: inactive

SMILES: Cn1cc(-c2cc3c(N4CCN(c5ncc([C@@](C)(N)c6ccc(F)cc6)cn5)CC4)ncnn3c2)cn1
- cytotoxicity call [1]: inactive
- cytotoxicity call [2]: active
- growth inhibition call [3]: inactive

SMILES: COc1ccc(-c2noc(CSc3nc4sc(C)c(C)c4c(=O)n3-c3ccccc3)n2)cc1OC
- cytotoxicity call [1]: inactive
- cytotoxicity call [2]: inactive
- growth inhibition call [3]: inactive
